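Five concentrations, 48 hours, 96-well plates. GI50 = concentration required for 50% inhibition of growth.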 The source holds more than one record for some entries. The list is limited to them. An entry can have further records. For part of these data: A record mostly stands for its own series of concentrations, not given here; a value can be the end of its range.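 TGI: total growth inhibition.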 For part of these data: Results that share an entry are repeats (runs, samples, wells, individuals or studies). Marks in square brackets tell the records apart. The letters are not those of the source and start again with each entry. A value given as a limit tells only on which side of the number the result lay.

Assay in all cases: DTP human tumour cell line panel, 48 h
Assay [1] concerns PC-3 prostate.
Assay [2] has as its system MDA-MB-435.
For assay [3], the system named is SK-MEL-28 melanoma.
Assay [4] concerns NCI-H522 lung.
Assay [5] concerns SF-295 CNS.
For assay [6], the system named is MOLT-4 leukemia.
Assay [7] relates to HS 578T breast.
The subject of assay [8] is SF-539 CNS.
Assay [9] deals with MALME-3M melanoma.
Assay [10] has as its system OVCAR-8 ovarian.
Assay [11] relates to SW-620 colon.
Assay [12] relates to U251 CNS.
In assay [13] the test system is SK-MEL-2 melanoma.
In assay [14] the test system is COLO 205 colon.
Assay [15] deals with IGROV1 ovarian.
Assay [16] has as its system HOP-62 NSCLC.
Assay [17] deals with MDA-MB-231 breast.
The subject of assay [18] is UACC-257 melanoma.
In assay [19] the test system is T-47D breast.
In assay [20] the test system is SK-MEL-5 melanoma.
The subject of assay [21] is OVCAR-3 ovarian.
The test system of assay [22] is 786-0 renal.
Assay [23] deals with LOX IMVI melanoma.
Assay [24] concerns TK-10 renal.
Assay [25] relates to M14 melanoma.
In assay [26] the test system is MCF7 breast.
The test system of assay [27] is HCC-2998 colon.
The subject of assay [28] is NCI-H460 lung.
The subject of assay [29] is HT29 colon.
For assay [30], the system named is CCRF-CEM leukemia.
Assay [31] relates to K-562 leukemia.
For assay [32], the system named is HL-60(TB) leukemia.
Assay [33] deals with A498 renal.
For assay [34], the system named is SK-OV-3 ovarian.
Assay [35] deals with SR leukemia.
The subject of assay [36] is DMS 273 small cell lung.
Assay [37] deals with RXF 393 renal.
The test system of assay [38] is CAKI-1 renal.
Assay [39] concerns SNB-75 CNS.
For assay [40], the system named is KM12 colon.
Assay [41] deals with NCI-H23 lung.
For assay [42], the system named is HCT-116 colon.

One may read the TGI as the concentration at which net growth stops. Higher therefore signals lower sensitivity of the cells. Consider `O=C([O][Hg][CH2]C1COC([CH2][Hg][O]C(=O)c2ccccc2)CO1)c1ccccc1` (stereo not drawn), for which the TGI in assay [1] was 28.7 µM and 2.65 µM; in assay [2] it was 30.4 µM and 2.99 µM.

Consider `CN(C)CCOc1ccc(/C(=C(/CCCl)c2ccccc2)c2ccccc2)cc1`, for which the TGI in assay [3] is 29.4 µM [sample A] and 1.64 µM [sample B]; in assay [4], 30.1 µM [sample A] and 1.69 µM [sample B]; in assay [5] it was 28.5 µM [sample A] and 2.07 µM [sample B]; in assay [6], 36.8 µM [sample A] and 2.94 µM [sample B]; in [7] it was 34.5 µM [sample A] and 2.8 µM [sample B]; in [8], 31.4 µM [sample A] and 1.64 µM [sample B]. In addition, the TGI is 29.9 µM [sample A] and 2.72 µM [sample B] in assay [1]; 33.8 µM [sample A] and 1.92 µM [sample B] in assay [9]; 31.5 µM [sample A] and 2.42 µM [sample B] in [10]; 30.1 µM [sample A] and 2.01 µM [sample B] in assay [11]; 32.6 µM [sample A] and 1.51 µM [sample B] in [12]; 29.7 µM [sample A] and 1.75 µM [sample B] in [13]. The total growth inhibition concentration (TGI) in assay [14] is 40 µM [sample A] and 1.58 µM [sample B]; in [15], 46.4 µM [sample A] and 4.01 µM [sample B]; in assay [16], 29.6 µM [sample A] and 1.82 µM [sample B]; in assay [17], 31.1 µM [sample A] and 2.26 µM [sample B]; in assay [18], 35.4 µM [sample A] and 1.82 µM [sample B]; in assay [19], 33.2 µM [sample A] and 2.91 µM [sample B]. The TGI in assay [20] was 29.5 µM [sample A] and 1.45 µM [sample B]; in [21], 24.2 µM [sample A] and 2.08 µM [sample B]; in [22], 32.4 µM [sample A] and 1.76 µM [sample B]; in assay [2], 31.8 µM [sample A] and 1.78 µM [sample B]; in assay [23] it was 32 µM [sample A] and 1.53 µM [sample B]; in [24], 28.6 µM [sample A] and 2.2 µM [sample B]. In addition, the TGI in assay [25] was 29.1 µM [sample A] and 1.88 µM [sample B]; in assay [26], 16.4 µM [sample A] and 1.62 µM [sample B]; in assay [27], 19 µM [sample A] and 1.5 µM [sample B]; in assay [28], 29.1 µM [sample A] and 1.59 µM [sample B]; in assay [29], 18.1 µM [sample A] and 1.28 µM [sample B].

What is called GI50 is the concentration that inhibits growth by half. A low value points to greater sensitivity of the cells. As to `C/C(=N\N=C(\[Se])N1CCN(c2ccccn2)CC1)c1ccccn1`, the GI50 in assay [30] is 2.11 nM and 23.4 nM. Further, the TGI in assay [30] is 8.58 nM and 17.4 µM; in [6] it was 29.5 nM and > 100 µM; in assay [31], 11.6 nM and > 48.7 µM; in [32], 531 nM and 7.7 µM.

`CN1CCN(c2ccc3nc(-c4c(N)c5c(F)cccc5[nH]c4=O)[nH]c3c2)CC1`: the TGI in [33] is 1.47 µM [sample A, 1 test] and 378 nM [sample B, 1 test] and 17.1 µM [sample C, 1 test]; in assay [34] it was 1.58 µM [sample A, mean of 2 tests] and > 10 µM [sample B, mean of 2 tests] and 16.1 µM [sample C, 1 test].

On to `CCOC(=O)Nc1cc2c(c(N)n1)N=C(c1ccccc1)[C@H](C)N2`, for which the total growth inhibition concentration (TGI) in [35] was 3.16 nM and > 100 µM; in assay [5], < 0.1 nM and 12.6 µM; in assay [36], < 0.1 nM and 14.5 µM; in assay [37] it was < 0.1 nM and 27.8 µM; in [33] it was 0.991 nM and 12.5 µM; in assay [12] it was 46.4 nM and 13.2 µM. In addition, the TGI in assay [20] is 3.16 nM and 12.7 µM; in assay [22], 557 nM and 24.3 µM; in assay [38] it was < 0.1 nM and 61 µM; in [29] it was 46.4 nM and 10 µM; in assay [39], 925 nM and > 100 µM.

For `CCOc1cc2c(cc1O)/C(=N\O)C[C@@H]1[C@@H]2CC[C@]2(C)[C@@H](O)CC[C@@H]12`, the TGI in [40] is 1.2 µM and > 100 µM; in assay [8], 6.89 nM and > 100 µM; in [41], 2.65 µM and 27.2 µM; in [42], 394 nM and > 43 µM; in [14], 3.28 nM and 23.7 µM; in [17] it was 2.88 nM and 508 nM. Further, the concentration for total growth inhibition (TGI) in [18] is 275 nM and > 100 µM; in assay [21], 38.5 nM and 10.5 µM; in assay [38], 3.03 nM and > 100 µM; in assay [26] it was 2.29 µM and > 100 µM. Besides, the GI50 in assay [37] was 24 nM and 353 nM; in assay [13], 801 nM and 57.4 nM; in [17] it was 1.41 nM and 52.9 nM; in assay [38], 1.59 nM and 42.6 nM.

Values taken from PubChem BioAssay (NCI).
